Results published in patent publication US11053313B2, “Anti-CLDN-5 antibody, and drug containing said antibody” (OSAKA UNIVERSITY, priority 2017, dated 2021).

Legend:
hCLDN-5 [1] = test: Epitope analysis by hCLDN-5/mCLDN-5 chimeric CLDN (D68E, T75A, S151T, TM; FACS); type: binding, human; conditions: antibody concentration 5 μg/mL, mutants D68E
MDCKII/hCLDN-5 = test: TEER of CLDN-5 compulsory expression system, MDCKII/hCLDN-5; type: cell-based, human; conditions: MDCKII/hCLDN-5, FIG. 7B
1-1-5 = target: T1, 1-1-5 (Homo sapiens, UniProt O00501, A34S/A72N/D37G/E76T/F35Y/G26A/H38D/H61Q/K48E/L36A/M29Q/M62I/Q31R/T33Y/T45A/T46M/T75S/V32I/V56S/V70L/W47Y/Y67F); test: Epitope analysis FACS, chimeric protein 1-1-5; type: binding; conditions: antibody concentration 5 μg/mL; first extracellular loop substituted with hCLDN-1
T1 construct: expressed in transfected cells; host or cells: retrovirus-infected cells (pCX4pur)
T1 sequence (O00501 1-218 G26A/M29Q/Q31R/V32I/T33Y/A34S/F35Y/L36A/D37G/H38D/T45A/T46M/W47Y/K48E/V56S/H61Q/M62I/Y67F/V70L/A72N/T75S/E76T): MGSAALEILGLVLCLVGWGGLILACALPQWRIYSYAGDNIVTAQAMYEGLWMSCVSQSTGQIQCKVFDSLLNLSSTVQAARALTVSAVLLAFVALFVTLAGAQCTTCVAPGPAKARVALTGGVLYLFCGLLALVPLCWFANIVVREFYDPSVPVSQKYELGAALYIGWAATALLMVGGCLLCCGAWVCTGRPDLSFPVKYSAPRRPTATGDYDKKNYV

hCLDN-5 [2] = test: Epitope analysis by hCLDN-5/hCLDN-1 chimeric CLDN (FACS), loop assignment; type: binding, human; conditions: antibody concentration 5 μg/mL, hCLDN-5/hCLDN-1 chimeras
5-5-1 = target: T2, 5-5-1 (Homo sapiens, UniProt O00501, A162Q/K157R/L160F/Q156A/S151M/S155N/V152T); test: Epitope analysis FACS, chimeric protein 5-5-1; type: binding; conditions: antibody concentration 5 μg/mL; second extracellular loop substituted with hCLDN-1
T2 construct: expressed in transfected cells; host or cells: retrovirus-infected cells (pCX4pur)
T2 sequence (O00501 1-218 S151M/V152T/S155N/Q156A/K157R/L160F/A162Q): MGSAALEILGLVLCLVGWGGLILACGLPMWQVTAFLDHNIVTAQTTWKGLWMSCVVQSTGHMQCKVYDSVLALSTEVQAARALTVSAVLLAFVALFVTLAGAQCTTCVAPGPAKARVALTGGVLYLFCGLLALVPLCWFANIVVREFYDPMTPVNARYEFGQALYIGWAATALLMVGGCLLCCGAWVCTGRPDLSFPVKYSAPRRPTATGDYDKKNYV

recognition of 1-1-5 (1-1-5): capable of recognizing
recognition of 5-5-1 (5-5-1): incapable of recognizing
B1: M3: mouse anti-CLDN-5 monoclonal antibody, IgG2b/K; VH SEQ ID NO: 1, VL SEQ ID NO: 2; example of antibody A (antibody, V domains shown)
VH: EVQLQQSGPELVKPGASVKISCKASGYSFTGYYMNWVKQSPEKSLEWIGDINPSTGGATYNQKFKAKATLTVDKSSSTAYMQLKSLTSEDSAVFYCALYSNYGFVYWGQGTLVTVSA
VL: DVVMTQTPLTLSVTLGQPASISCKSSQSLLYSDGKTYLNWLLQRPGQSPKRLIYLVSKLDSGVPDRFTGSGSGTDFTLKISRVEAEDLGLYYCVQGIHFPRTFGGGTKLEIK
modifications: M3 VH; M3 VL
portion of hCLDN-5 recognized (hCLDN-5 [1]): three-dimensional structure created by the transmembrane domain of hCLDN-5
reduction in TEER (MDCKII/hCLDN-5): greatly reducing TEER
extracellular loop of CLDN-5 recognized (hCLDN-5 [2]): second extracellular loop
